# Measurements published in PubChem BioAssay AID1508623 (National Center for Advancing Translational Sciences (NCATS), 2021).
# About 450 (0.94%) of roughly 48,000 compounds were called active. Another 19% or so got no clear call; they are omitted. Calls come from the whole dose curve; as a rule, active = well fitted inhibition curve with a large enough effect; inconclusive = small, poorly fitted or top-dose-only effect; inactive = no such curve, though single readings can be large or run the other way. The list shows a part of the results.
# Assay: Primary qHTS for Identification of Small Molecule Inhibitors of Huntingtin Promoter Activity; note: nearly all actives have a fitted effect of over 50% in size
# Conditions: HEK293 HTT promoter firefly luciferase reporter (activity 0% = vehicle and -100% = no light), 24 h; activity change, negative = inhibition: at the top concentration
# Text: Assay Provider: Russell L. Margolis M.D.
# Department Neurology, Johns Hopkins University School of Medicine, Baltimore, MD
# Huntington's Disease (HD) is a neurodegenerative disorder caused by a CAG repeat expansion in exon 1 of huntingtin (HTT). While there are currently no disease-modifying treatments for HD, recent efforts have focused on development of nucleotide-based therapeutics to lower HTT expression. As an alternative to siRNA or oligonucleotide methods, we hypothesized that suppression of HTT expression might be accomplished by small molecules that either (1) directly decrease HTT expression by suppressing HTT promoter activity or (2) indirectly decrease HTT expression by increasing the promoter activity of HTT-AS, the gene antisense to HTT that appears to inhibit expression of HTT.
# We developed and employed a high throughput screen for modifiers of HTT and HTT-AS promoter activity using luminescent reporter HEK293 cells; of the 52,041 compounds tested, we identified 898 replicable hits. We used a rigorous stepwise approach to assess compound toxicity and the capacity of the compounds to specifically lower huntingtin protein in 5 different cell lines, including HEK293 cells, HD lymphoblastoid cells, mouse primary neurons, HD iPSCs differentiated into cortical-like neurons, and HD hESCs. We found no compounds which were able to lower huntingtin without lowering cell viability in all assays, though the potential efficacy of a few compounds at non-toxic doses could not be excluded.
# SEQUENCE No. (1, 2, 3, etc.); […] (e.g., Cells, Incubation, Reagent, etc.); VALUE and DESCRIPTION.
# 1; Reagent; 4 uL; 2,500 Hek293 luciferase reporter cells per wells
# 3; Compound; 23 nL; Control inhibitor / compound library
# 5; Reagent; 2.5 uL; Firefly Luc reagent; Dual-Glo Luciferase Reporter Assay System (Promega)
# 6; Time; 10 min; room temperature incubation
# 7; Detection; Luminescence; FLuc
# NOTES (numbers refer to sequence above)
# 1; High-throughput screening, measuring luminescence from a Hek293 luciferase reporter, was performed in 1,536 well white-walled tissue-culture treated plates. 2,500 cells were plated in 4 µL of Opti-MEM per well using a Multidrop Combi Reagent Dispenser (ThermoFisher).
# 2; Assay plates were cultured for 24 hours.
# 3; Control inhibitor (PTC124; final concentration of 50 uM) and compound library (at final concentrations of 460 nM - 57.5 uM) were added to the assay plate using the Kalypsis Pintool Robotic System equipped with 1536 pinheads.
# 4; Cells were then incubated for 24 hours at 37 degrees C prior to luminescence measurements.
# 5; In all cases, luminescence was measured using the Dual-Glo Luciferase Reporter Assay System (Promega) following the manufacturer's instructions.
# 6; Room temperature incubation.
# 7; Luminescence signal was obtained using the PerkinElmer ViewLux plate reader. Results were normalized to vehicle control (0% activity) and zero RLU (-100% activity).
row,Structure (SMILES),"activity change, negative = inhibition"
1,C[C@]12Cc3nonc3C[C@@H]1CC[C@@H]1[C@@H]2CC[C@@]2(C)[C@H]1CC[C@]2(C)O,inactive: -27.4%
2,C=C1CC[C@@]2(O)[C@H]3Cc4ccc(O)c5c4[C@@]2(CCN3CC2CC2)[C@H]1O5,inactive: -6.16%
3,O=C(CCCN1CCC2(CC1)C(=O)NCN2c1ccccc1)c1ccc(F)cc1,inactive: 7.18%
4,O=c1[nH]oc2c1CCNC2,inactive: 12.8%
5,CCOC(C(=O)OCCN(C)C)(c1ccccc1)c1ccccc1,inactive: -6.69%
6,CN1[C@@H]2CC[C@H]1CC(OC(=O)c1cc(Cl)cc(Cl)c1)C2 (some centres not stated),inactive: -9.19%
7,CCn1c(CN2CCN(C)CC2)nc2ccccc21,inactive: -13.3%
8,CC(=O)C1CCOC1=O (configuration not stated),inactive: 0.304%
9,O=C(c1ccc2c(c1)N(Cc1c(F)cccc1Cl)C(=O)c1ccccc1S2)N1CCC2(CC1)OCCO2,inactive: -11.9%
10,C[C@H]1O[C@@H](O[C@H]2[C@@H](O)C[C@H](O[C@H]3[C@@H](O)C[C@H](O[C@H]4CC[C@@]5(C)[C@H](CC[C@@H]6[C@@H]5CC[C@]5(C)[C@@H](C7=CC(=O)OC7)CC[C@]65O)C4)O[C@@H]3C)O[C@@H]2C)C[C@H](O)[C@@H]1O,inactive: -38.6%
11,CCOc1ccc(CN2C(=O)c3ccccc3Sc3ccc(C(=O)N4CCC5(CC4)OCCO5)cc32)cc1,inactive: -26.5%
12,Cc1c(C(c2ccc(O)cc2)c2c(O)c3ccccc3oc2=O)c(=O)n(-c2ccccc2)n1C (configuration not stated),inactive: -6.56%
13,Cc1ccc(-n2c(/C=C/c3cccc(C(F)(F)F)c3)nc3ccccc3c2=O)cc1,inactive: -29.8%
14,NC(=O)c1ccc(NC(=O)c2cccn(Cc3ccccc3)c2=O)cc1,inactive: -7.57%
15,CCC1(CCC(C)C)C(=O)NC(=O)NC1=O,inactive: -13% [at 116 µM]
16,O=c1c2ccccc2nc(/C=C\c2cccc(Br)c2)n1-c1ccc(O)cc1,inactive: -21.4%
17,CCC1(C2=NCCN2)Cc2ccccc2O1 (configuration not stated),inactive: 10.7%
18,CCSc1nnc(NC(=O)c2cccn(Cc3ccc(Cl)cc3)c2=O)s1,inactive: -6.05%
19,CC[C@@H](CO)NC(=O)[C@@H]1C=C2c3cccc4[nH]cc(c34)C[C@H]2N(C)C1,inactive: 1.68%
20,Cc1ccc2scc(N3CCN(C)CC3)c(=O)c2c1,inactive: 53.1%
21,Cc1ccc(-n2c(/C=C/c3ccccc3)nc3ccccc3c2=O)cc1C,inactive: -22.3%
22,CCOC(=O)Nc1ccc(NCc2ccc(F)cc2)cc1N,inactive: -8.16%
23,C[C@H](N)C(=O)c1ccccc1,inactive: -2.65% [at 116 µM]
24,Nc1ccccc1C(=O)OCC(O)CO (configuration not stated),inactive: 13.1%
25,COc1cc2cc(c1Cl)N(C)C(=O)C[C@H](OC(=O)C(C)C)[C@]1(C)O[C@H]1[C@H](C)[C@@H]1C[C@@](O)(NC(=O)O1)[C@H](OC)C=CC=C(C)C2,inactive: -26.4%
26,O=C(O)c1nn(Cc2ccc(Cl)cc2Cl)c2ccccc12,inactive

row,Structure (SMILES),"activity change, negative = inhibition"
1,O=C(O)C(Cl)Cl,inactive: 6%
2,CN(C)[C@@H]1C(=O)C(C(N)=O)=C(O)[C@@]2(O)C(=O)C3=C(O)c4c(O)cccc4[C@@](C)(O)[C@H]3C[C@@H]12,inactive
3,Cc1ccccc1Cn1cccc(C(=O)Nc2cc(Cl)ccc2C#N)c1=O,inactive: -1.12%
4,CC(NC(C)(C)C)C(=O)c1cccc(Cl)c1 (configuration not stated),inactive
5,CCOc1ccc2nc(NC(=O)c3cccn(Cc4ccccc4C)c3=O)sc2c1,inactive: -13.1%
6,CCC(=O)N1CC(=O)Nc2ccc(C)cc2C1c1ccc(F)cc1 (configuration not stated),inactive: -4.19%
7,NCc1cccnc1,inactive: -1.64%
8,Cc1cc(NC(=O)c2cccn(Cc3cccc([N+](=O)[O-])c3)c2=O)no1,inactive: -7.99%
9,CC(C)=C[C@@H]1[C@@H](C(=O)OCc2coc(Cc3ccccc3)c2)C1(C)C,inactive: 8.37%
10,CCC(CC)(CNC(=O)CCCO)c1cccc(OC)c1,inactive: -4.69%
11,CCCN(CCC)CCc1c[nH]c2ccccc12,inactive: -6.61% [at 116 µM]
12,CN1CC[C@]23c4c5ccc(O)c4O[C@H]2[C@@H](O)C=C[C@H]3[C@H]1C5,inactive: -6.72% [at 116 µM]
13,O=[N+]([O-])c1cc([N+](=O)[O-])c2ccccc2c1,inactive: 14.8% [at 116 µM]
14,O=C(Nc1ccc2c(c1)OCO2)c1cccn(Cc2ccc(F)cc2)c1=O,inactive: -23.9%
15,NCC(CC(=O)O)c1ccc(Cl)cc1 (configuration not stated),inactive: -2.51% [at 0.739 µM]
16,O=C1OC(c2ccc(O)c(S(=O)(=O)O)c2)(c2ccc(O)c(S(=O)(=O)O)c2)c2c(Br)c(Br)c(Br)c(Br)c21,inactive: -4.95%
17,O=c1cccc2n1CC1CNC[C@H]2C1,inactive: 192%
18,CCOC(=O)CC(SP(=S)(OC)OC)C(=O)OCC (configuration not stated),inactive
19,NC(=O)c1cc([N+](=O)[O-])cc([N+](=O)[O-])c1,inactive: 4.05%
20,COc1ccc(-c2nn3c(=O)cc(CN4CCN(C(=O)COc5ccc(F)cc5)CC4)nc3s2)cc1,inactive: -21.5%
21,O=C1CC[C@@]2(O)[C@H]3Cc4ccc(O)c5c4[C@@]2(CCN3CC2CC2)[C@H]1O5,inactive
22,CC(=O)OC1(c2ccccc2)CCN(CCc2ccccc2)CC1,inactive: -22.1% [at 116 µM]
23,CCN(CC)CCc1c[nH]c2ccccc12,inactive: -1.73% [at 222 µM]
24,COC1CC(=C(c2cccs2)c2cccs2)C[N+](C)(C)C1 (configuration not stated),inactive: 6.29%
25,Cc1oc(-c2ccc(Cl)cc2)nc1CN1C(=O)CN=C(c2ccccc2)c2cc(Cl)ccc21,inactive: -3.67%
26,CN1CCN(C(=O)O[C@H]2c3nccnc3C(=O)N2c2ccc(Cl)cn2)CC1,inactive
